Consider 30 molecules from PubChem BioAssay AID1745853 (National Center for Advancing Translational Sciences (NCATS), 2022).

Common to all, as to assay: Primary Screen for Target Class Profiling of Small Molecule Inhibitors of Methyltransferases
Test [1] addresses Guanidinoacetate N-methyltransferase (Homo sapiens) (UniProt Q14353). Conditions: purified enzyme, MTase-Glo SAH luminescence; measured here: GAMT inhibition; at 40 µM; stronger effect = lower value. Summed up:
(§1)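 Each enzyme was reacted with SAM and its substrate, with compounds tested once at 40 uM; SAH formed was read by MTase-Glo luminescence.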

For test [2], the target named is Nicotinamide N-methyltransferase (Homo sapiens) (UniProt P40261). The settings on record: purified enzyme, MTase-Glo SAH luminescence; measured here: NNMT inhibition; at 40 µM; stronger effect = lower value. Summed up: as §1
For test [3], the target named is Phenylethanolamine N-methyltransferase (Homo sapiens) (UniProt P11086). The settings on record: purified enzyme, MTase-Glo SAH luminescence; measured here: PNMT inhibition; at 40 µM; stronger effect = lower value. In short, it runs like this: as §1
The target in test [4] is Glycine N-methyltransferase (Homo sapiens) (UniProt Q14749). Conditions: purified enzyme, MTase-Glo SAH luminescence; measured here: GNMT inhibition; at 40 µM; stronger effect = lower value. In short, it runs like this:
as §1

For test [5], the target named is Histamine N-methyltransferase (Homo sapiens) (UniProt P50135). Conditions: purified enzyme, MTase-Glo SAH luminescence; measured here: HNMT inhibition; at 40 µM; stronger effect = lower value. In short, it runs like this:
as §1

Some of the results follow. These are further read-outs of the screen, such as a control signal, another cell line or another target. No call is given for them.
On the % scale 0 is the no-effect control and ±100 the full control effect.

As to `CN(Cc1nccs1)c1ncnc2ccc(-c3ccc4c(c3)OCO4)cc12`, the activity change, negative = inhibition in test [1] is -55.9%; in test [2] it was -66.8%; in test [3] it was -69.5%.
`CC[C@H](Nc1ncnc2nc[nH]c12)c1nc2cccc(F)c2c(=O)n1-c1ccccc1`: the activity change, negative = inhibition in test [4] is -13.1%; in test [1], -12.5%; in test [5], -0.104%; in test [2], -17.9%; in test [3], -4.94%.
On to `COc1cccc(-c2ccc(NC(=O)C3CCCN3C(=O)CNC(C)=O)cc2)c1` (stereo not drawn), for which the activity change, negative = inhibition in test [4] was -0.87%; in test [1], -0.42%; in test [5] it was -0.095%; in test [2], -5.93%; in test [3] it was -5.61%.
With `O=C1CC(c2ccccc2)N(C(=O)CNC(=O)c2ccncc2)CCCCCN1` (stereo not drawn), the activity change, negative = inhibition in test [4] is -0.454%; in test [1], -4.59%; in test [5], 2.09%; in test [2], -5.02%; in test [3] it was 0.973%.
Turning to `CC(C)(C)c1cc2n(n1)CC(C)(C(=O)NC1CCCCCC1)N(Cc1cccc(F)c1)C2=O` (stereo not drawn), the activity change, negative = inhibition in test [4] is 0.281%; in test [1], 2.72%; in test [5], 1.9%; in test [2], -6.42%; in test [3], 0.921%.
Turning to `O=C(O[C@H]1[C@@H]2C=CO[C@@H](O[C@@H]3O[C@H](CO)[C@@H](O)[C@H](O)[C@H]3O)[C@@H]2[C@@]2(CO)O[C@@H]12)c1ccccc1`, the activity change, negative = inhibition is -0.874% in test [4]; -5.47% in test [1]; 4.05% in test [5]; -13.5% in test [2]; -7.53% in test [3].
Turning to `CCn1c(=O)n(CC)c2cc(S(=O)(=O)N3CCN(Cc4ccc5c(c4)OCO5)CC3)ccc21`, the activity change, negative = inhibition in test [4] is -3.6%; in test [1], 2.91%; in test [5] it was -4.92%; in test [2], -11.1%; in test [3], -0.461%.
On to `O[C@]12CCNC[C@H]1CN(Cc1cccc(N3CCOCC3)c1)CC2`, for which the activity change, negative = inhibition is -3.98% in test [4]; -6.15% in test [1]; -2.46% in test [5]; -9.8% in test [2]; -8.75% in test [3].
With `O=C(NC[C@H]1O[C@@H](CC(=O)N2CCc3ccccc32)[C@H](O)[C@@H]1O)C1CC1`, the activity change, negative = inhibition in test [4] was -4.81%; in test [1], 0.269%; in test [5] it was -26.2%; in test [2], -7.45%; in test [3], -9.24%.
For `CCCn1c(=O)c2ccc(C(=O)NC3CCCC3)cc2n2c(=O)n(CC(=O)c3cc(C)ccc3C)nc12`, the activity change, negative = inhibition was determined as 7.2% in test [4]; 0% in test [1]; 0.386% in test [5]; 4% in test [2]; 5.86% in test [3].
For `CCOC(=O)c1cc2n(n1)CC(C)(C(=O)NCc1ccc(F)cc1)N(c1ccccc1C)C2=O` (stereo not drawn), the activity change, negative = inhibition was 1.1% in test [4]; 0% in test [1]; 2.2% in test [5]; -2.53% in test [2]; 1.08% in test [3].
Turning to `COc1ccc(OC)c(CCNC(=O)CCc2nnc3n(Cc4ccc(F)cc4)c(=O)c4ccccc4n23)c1`, the activity change, negative = inhibition in test [4] was -1.16%; in test [1] it was 0%; in test [5], -3.27%; in test [2], -14%; in test [3] it was 1.25%.
In the case of `Cc1ccc(CCN2C(=O)c3cc4ccccc4n3CC2(C)C(=O)NCc2ccccc2)cc1` (stereo not drawn), the activity change, negative = inhibition was -2.65% in test [4]; -0.295% in test [1]; -5.52% in test [5]; -7.08% in test [2]; -8.33% in test [3].
In the case of `COc1ccc(OC)c2c1cc1n2CC(C)(C(=O)NC2CCCCC2)N(Cc2ccccc2)C1=O` (stereo not drawn), the activity change, negative = inhibition is -8.5% in test [4]; -3.44% in test [1]; -7.82% in test [5]; -13.8% in test [2]; -12.6% in test [3].
Turning to `CC(C)NC(=O)c1ccc2c(=O)n(C(C)C)c3nn(CC(=O)Nc4ccccc4)c(=O)n3c2c1`, the activity change, negative = inhibition in test [4] was 1.33%; in test [1], 2.86%; in test [5] it was 2.55%; in test [2], -7.3%; in test [3] it was -0.972%.
With `COc1ccccc1NC(=O)N1CCn2c(C)ccc2C1C(C)C` (stereo not drawn), the activity change, negative = inhibition was 14.7% in test [4]; 0.917% in test [1]; 5.35% in test [5]; -3.88% in test [2]; 9.15% in test [3].
For `COCCC1(N(C)C)CCN(S(=O)(=O)c2cccc(OC)c2)CC1`, in that order: 3.77%, 1.63%, 10.1%, -3.95% and 6.67%.
The matching figures for `COc1ccc2[nH]c(C(=O)N3CCCCCNC(=O)[C@@H]4CCC[C@@H]43)cc2c1`: -3.03%, 0.664%, 2.04%, 0.575% and 10.9%.
With `C=CCN(CC=C)CC(O)Cn1c2c(c3cc(C)ccc31)CCCC2` (stereo not drawn), the activity change, negative = inhibition in test [4] turned out to be 3.24%; in test [1], 0.721%; in test [5], 7.65%; in test [2], 7.9%; in test [3], 1.34%.
The matching figures for `Cc1ccc(CN2C(=O)c3cc(-c4ccccc4)nn3CC2(C)C(=O)NCc2ccccc2)o1` (stereo not drawn): -2.39%, 1.48%, 1.9%, -8.22% and -3.26%.
Take `CC(C)C1=NOC2(CCN(C3COC3)CC2)C1`: the activity change, negative = inhibition in test [4] is -4.21%; in test [1], -3.59%; in test [5], -1.77%; in test [2], -7.85%; in test [3], -5.66%.
For `C=C[C@H]1[C@H](O[C@@H]2O[C@H](CO)[C@@H](O)[C@H](O)[C@H]2O)OC=C2C(=O)OCC[C@]21O`, the activity change, negative = inhibition in test [4] is -0.222%; in test [1], -8.35%; in test [5], 6%; in test [2], -20.7%; in test [3], 1.51%.
For `COc1ccc(NS(=O)(=O)c2cc3c(cc2Cl)n(C)c(=O)n3C)cc1OC`, in that order: 1.22%, 1.36%, 10.3%, 2.72% and 2.94%.
In the case of `CC1(C(=O)NC2CCCCCCC2)Cn2c(ccc2-c2ccco2)C(=O)N1Cc1ccc(Cl)cc1` (stereo not drawn), the activity change, negative = inhibition in test [4] was -9.88%; in test [1], 1.21%; in test [5], -6.32%; in test [2] it was -14.1%; in test [3] it was -7.27%.
For the molecule `CCCN1C(=O)c2c(C(=O)NCCc3ccccc3)ncn2CC1(C)C(=O)NCCC(C)C` (stereo not drawn), the activity change, negative = inhibition stood at 4.04% in test [4]; 1.28% in test [1]; 7.35% in test [5]; 8.44% in test [2]; 11.3% in test [3].
With `Cc1ccc(NC(=O)Cn2c(=O)oc3cc(S(=O)(=O)N4CCCC4)ccc32)cc1C`, the activity change, negative = inhibition in test [4] was -1.31%; in test [1], 0%; in test [5], 6.93%; in test [2], 9.41%; in test [3] it was -13.2%.
Take `CNC(=O)Cn1nc(C2CCN(C(=O)c3ccccc3F)CC2)c2c1CCOC2`: the activity change, negative = inhibition in test [4] was -0.922%; in test [1], -2.33%; in test [5] it was 0.89%; in test [2] it was -8.75%; in test [3], -2.91%.
The matching figures for `Cc1c(CNC(=O)c2ccccc2C2CCNC2)oc2ccccc12` (stereo not drawn): -5.08%, -7.08%, -14.3%, -11.7% and -28.6%.
Turning to `COc1ccc2cc3n(c2c1)CC(C)(C(=O)NC1CCCCCC1)N(CCN1CCN(C)CC1)C3=O` (stereo not drawn), the activity change, negative = inhibition in test [4] was determined as 9.29%; in test [1], 0%; in test [5] it was 10.3%; in test [2], 11.6%; in test [3], 2.79%.
`Cc1nn(C)c(COc2ccc(N3CCN(S(=O)(=O)N(C)C)CC3)cc2)c1-c1cccc2c(CCCOc3cccc4ccccc34)c(C(=O)O)n(CCN3CCOCC3)c12`: the activity change, negative = inhibition was 6.83% in test [4]; 9.24% in test [1]; 7.78% in test [5]; -4.7% in test [2]; 3.49% in test [3].
